Results published in the supplement of paper PMC3334620.
Whole data set: some 33,000 sequences, median “E-score (-0.5 to 0.5)” near -0.013, cut for the highest 2% near 0.3. The list shows a part of the results.

Target: T1, Msn1 (UniProt P22148)
T1 sequence: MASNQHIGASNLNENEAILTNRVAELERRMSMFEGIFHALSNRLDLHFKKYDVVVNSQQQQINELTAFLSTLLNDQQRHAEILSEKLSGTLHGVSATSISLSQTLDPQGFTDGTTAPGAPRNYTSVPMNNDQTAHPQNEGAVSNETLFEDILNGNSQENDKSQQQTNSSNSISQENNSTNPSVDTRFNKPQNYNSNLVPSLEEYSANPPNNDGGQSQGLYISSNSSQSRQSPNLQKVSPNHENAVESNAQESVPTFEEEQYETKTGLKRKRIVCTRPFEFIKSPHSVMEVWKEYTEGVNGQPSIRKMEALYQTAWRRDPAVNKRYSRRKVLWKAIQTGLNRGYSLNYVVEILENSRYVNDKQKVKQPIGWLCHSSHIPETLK
Assay: PBM E-score (8-mer binding enrichment) (E-score (-0.5 to 0.5)); higher = stronger / more preferred TF binding; most listed sequences are background and not binding sites
Details: protein concentration: 200 nM; construct: GST-full length
Procedure, shortened: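 PURExpress in vitro transcription/translation supplied GST-tagged yeast transcription factors, either full-length or DNA-binding domain. Applied at about 100-200 nM to universal all-10-mer Agilent arrays double-stranded by primer extension, the bound protein was detected with fluorescent anti-GST. E-scores, modified Wilcoxon-Mann-Whitney statistics, were given by the Universal PBM Analysis Suite to ungapped eight-base words pooled with their reverse complements after masliner normalisation.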

Row | Sequence | PBM E-score
1 | CACGTCCC | -3e-05
2 | AAGAGCTG | -0.0703
3 | AAATACCG | 0.189
4 | ATATTTCA | 0.193
5 | AACAAGGG | -0.0134
6 | AAACAAAC | 0.192
7 | AAGATCTG | 0.115
8 | CTCCCAAA | 0.012
9 | CGCATCAA | 0.0022
10 | AAAATGGT | 0.193
11 | CAAATCAG | 0.113
12 | GGGGCCCA | -0.294
13 | TACGACGA | 0.0849
14 | GGCTCATA | -0.134
15 | CATTCCGA | 0.213
16 | CTGATAGC | -0.203
17 | AGCACCTC | -0.148
18 | CCTAAATA | -0.129
19 | ACCCCAAA | 0.0866
20 | ACTCAACG | -0.108
21 | ACTTAAGG | 0.066
22 | ACGGCGCT | -0.183
23 | ATAGGTGG | 0.0555
24 | ATTGACCC | 0.0434
25 | GAAACGGC | -0.0341

Row | Sequence | PBM E-score
26 | CAACTTTA | 0.0445
27 | GCCCGAGA | 0.129
28 | CCAAGCAC | -0.0299
29 | TATCAAAA | 0.145
30 | GATCACAA | 0.157
31 | ATATACAA | 0.24
32 | CTCGTCAC | 0.0128
33 | ACTACATC | -0.0335
34 | GCTAAGCA | -0.0885
35 | AACGTAGT | -0.0151
36 | ATATGGTA | 0.154
37 | CACATTGA | 0.0276
38 | CGTTGTAA | 0.0531
39 | ACCCTGGC | -0.349
40 | GTAAGATA | 0.162
41 | AAATAATG | 0.117
42 | CCGAATAC | 0.0509
43 | GGACGAAC | 0.282
44 | AGAGGTTC | -0.0645
45 | CTCACGAG | -0.193
46 | CTCAATTC | -0.0581
47 | ATCATGCA | -0.222
48 | GCCGGTCA | 0.00773
49 | GGTGTTAA | -0.0746
50 | ACCATTGC | -0.0477

Row | Sequence | PBM E-score
51 | GCGAAACA | 0.0374
52 | CGAGTTAC | 0.0785
53 | GGCCTGTA | -0.247
54 | CCTCTTGA | -0.0795
55 | GTGGGGAA | -0.0697
56 | AAGGCCAT | 0.0237
57 | CTGCGCAC | -0.0321
58 | GTGTGTAA | -0.0988
59 | AGAACCAC | -0.117
60 | ACGATCGT | 0.208
61 | AGTCTCAC | -0.00088
62 | CATGAACG | -0.0971
63 | GGGGGCGA | -0.417
64 | AATCGATT | 0.0863
65 | CAGCCACA | -0.0773
66 | CCCAAGCC | -0.0839
67 | CTGGCACC | -0.275
68 | CTGCGTAC | -0.12
69 | TAGGTCCA | 0.153
70 | CCAGATGA | 0.107
71 | AATACGTA | 0.00965
72 | TATCTTAA | 0.129
73 | ATTATCAC | 0.147
74 | ACACGTGC | 0.0777
75 | CAACGGTA | -0.128

Row | Sequence | PBM E-score
76 | ATAAGGAC | 0.369
77 | ACGGGAGC | -0.184
78 | CACAGCAG | -0.0659
79 | ACCGCGTC | 0.12
80 | TATCGTAA | -0.0517
81 | GGTGATAC | -0.105
82 | AAAAGCAG | -0.0398
83 | ATTAGCAA | 0.22
84 | ACCGCCGC | -0.0867
85 | AAAGGTTA | -0.071
86 | GCGCCCAA | -0.149
87 | TCTATAGA | -0.165
88 | AAAGGAAC | 0.0464
89 | GAGGCCCC | -0.343
90 | AGGCCCAT | -0.227
91 | CTAACCTC | -0.162
92 | CCGAGAGC | -0.0632
93 | CACCGCAC | -0.119
94 | GCATGGCA | -0.0098
95 | ACGGGTAA | -0.00678
96 | CAGCTTGG | 0.033
97 | GCGAAACC | 0.122
98 | CATTCGCC | -0.196
99 | AAAGATTT | -0.0185
100 | CTCGGATC | 0.188

Row | Sequence | PBM E-score
101 | AACAGACC | -0.0742
102 | CAACTCTG | -0.0439
103 | CGTTATCC | 0.00106
104 | CCTGACCG | -0.128
105 | GTTCAGTA | 0.0516
106 | ACGCGGTA | -0.0954
107 | GCATATAC | 0.0331
108 | CCGGTGCC | -0.126
109 | AACCCGGA | 0.0522
110 | ATGCCATC | -0.0803
111 | ACCTAGCC | -0.0544
112 | AGGCTGTG | -0.082
113 | GGGCAAAA | 0.142
114 | ACGGGCAT | -0.0723
115 | GCTAGAGC | -0.146
116 | GAACGCTA | -0.164
117 | GCAGGGAC | 0.163
118 | CATAGGCG | -0.0149
119 | TACACCTA | -0.0747
120 | CCTTCCAA | -0.23
121 | GTATAGCA | 0.115
122 | ATTGCTCC | 0.0201
123 | CAGTCCGG | -0.0462
124 | CACAACAC | 0.021
125 | CACAGTAC | 0.146

Row | Sequence | PBM E-score
126 | CTCCATTC | -0.0717
127 | CTACGGTC | -0.267
128 | AAATCATT | 0.124
129 | AGAATCCC | 0.196
130 | CTCGGGGC | -0.183
131 | CCCTTTTC | -0.0434
132 | CTCCTACC | -0.385
133 | TACCCGTA | -0.0437
134 | ATATCGGA | 0.16
135 | CAGCCTGG | -0.164
136 | GTACGGAA | 0.138
137 | AGACTGTG | -0.13
138 | CTAATGTC | 0.378
139 | ATATCCGC | -0.0503
140 | CAAAAAGG | -0.0523
141 | AGTTGTTC | 0.0053
142 | AGGCCATC | -0.0374
143 | ATCAGCCA | -0.199
144 | TACGGGGA | -0.11
145 | CGTTATAA | 0.0511
146 | TCAGGTAA | -0.187
147 | AAATGGAC | 0.338
148 | AGCAGTTC | -0.216
149 | CGGTCAGA | 0.0144
150 | CGCGTAAC | 0.0166

Row | Sequence | PBM E-score
151 | ATTAAAGC | 0.0761
152 | CAGCGCTC | -0.109
153 | TCACTCCA | 0.0709
154 | CTTCGCGA | -0.0474
155 | TCGGATAA | 0.0982
156 | AAAAGGGT | 0.0914
157 | TCTTATAA | 0.164
158 | ATCGCCGA | 0.0457
159 | AGTCCCCA | -0.186
160 | ACTTTCCC | -0.124
161 | CTTGTTTA | 0.0291
162 | CAATCTTA | 0.0591
163 | AACGCGGT | 0.0128
164 | GTATGCCA | -0.169
165 | ACCTTGCA | -0.105
166 | CCGTGATC | -0.0112
167 | ACCAGCGG | -0.0991
168 | ATGGCCAG | 0.0616
169 | AGCGAAAA | -0.0661
170 | TCAACGAA | 0.101
171 | AAAGAGAA | 0.0586
172 | CCCTTTCC | -0.196
